Experimental data as given in PMC4336329 (PLoS ONE, 2015).
Among all 310,000 compounds or so, about 14,000 (4.5%) showed an effect of 50% or more. The effect is printed as a negative number. The list shows a part of the results.

Target: human ether-à-go-go-related gene (hERG) potassium channel (human, UniProt Q12809)
Experiment: primary screen, population patch clamp on CHO cells stably expressing hERG
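Note: peak tail current of the secondary pulse compared with the same well before compound.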

human ether-à-go-go-related gene (hERG) potassium channel, sequence (Q12809 whole entry, looked up): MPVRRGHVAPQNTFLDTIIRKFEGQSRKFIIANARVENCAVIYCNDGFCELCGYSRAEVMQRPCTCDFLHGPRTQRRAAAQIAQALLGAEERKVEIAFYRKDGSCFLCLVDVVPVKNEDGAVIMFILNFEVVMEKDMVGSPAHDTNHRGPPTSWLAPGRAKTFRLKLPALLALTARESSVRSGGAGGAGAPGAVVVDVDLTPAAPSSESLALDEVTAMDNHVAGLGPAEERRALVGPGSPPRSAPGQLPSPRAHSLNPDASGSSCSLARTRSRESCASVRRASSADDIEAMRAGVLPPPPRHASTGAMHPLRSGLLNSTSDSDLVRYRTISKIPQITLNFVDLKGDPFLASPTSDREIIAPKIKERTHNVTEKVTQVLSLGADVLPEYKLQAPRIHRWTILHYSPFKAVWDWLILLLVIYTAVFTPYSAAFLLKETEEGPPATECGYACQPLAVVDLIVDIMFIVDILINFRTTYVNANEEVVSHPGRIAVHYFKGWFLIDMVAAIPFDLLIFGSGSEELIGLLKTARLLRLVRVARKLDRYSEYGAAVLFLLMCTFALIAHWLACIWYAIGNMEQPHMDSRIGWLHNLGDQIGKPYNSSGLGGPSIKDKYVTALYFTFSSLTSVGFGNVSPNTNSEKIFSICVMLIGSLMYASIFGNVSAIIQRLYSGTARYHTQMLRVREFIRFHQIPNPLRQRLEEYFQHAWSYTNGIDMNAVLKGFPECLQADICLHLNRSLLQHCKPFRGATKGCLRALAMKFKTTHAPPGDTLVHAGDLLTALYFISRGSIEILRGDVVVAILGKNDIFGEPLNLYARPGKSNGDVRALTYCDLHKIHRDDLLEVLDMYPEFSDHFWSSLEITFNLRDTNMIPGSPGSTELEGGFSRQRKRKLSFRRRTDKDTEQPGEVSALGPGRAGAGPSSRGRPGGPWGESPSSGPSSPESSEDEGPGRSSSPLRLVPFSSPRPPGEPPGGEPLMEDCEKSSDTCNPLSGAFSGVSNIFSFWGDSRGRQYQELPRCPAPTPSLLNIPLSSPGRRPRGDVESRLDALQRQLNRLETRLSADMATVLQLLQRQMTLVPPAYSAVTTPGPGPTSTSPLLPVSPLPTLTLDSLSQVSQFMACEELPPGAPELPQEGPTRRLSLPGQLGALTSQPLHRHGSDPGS

Compound | hERG current change (%, negative = inhibition) at 10uM
O=C(CN1C(=O)NC2(CCc3ccccc32)C1=O)NCC(F)(F)F (stereo not shown) | 2.18%
COc1ccc(C(=O)C2CCCN(C(=O)c3ccccc3C(C)=O)C2)cc1F (stereo not shown) | -14.8%
CCc1ccc(Cc2cnc(NC(=O)C3=NCCN3)s2)cc1 | 1.57%
CCOC(=O)Cc1csc(N/C(=N/S(=O)(=O)c2ccc(F)cc2F)c2ccccc2)n1 | -11.7%
Cc1ccc(-n2c(-c3ccco3)n[nH]c2=S)cc1 | 24%
O=C(CS(=O)(=O)c1ccccc1)Nc1nc2ccccc2s1 | -10.8%
COc1ccccc1NC(=O)CSc1nnc(CNC(=O)c2ccco2)o1 | 15.5%
COC(=O)COc1cccc(NC(=O)c2ccc(C)cc2)c1 | 5.91%
Cc1cccc(NC(=O)C2CCN(C(=O)c3ccco3)CC2)c1C | 29.9%
CN1CCN(C(=O)COc2ccc3ccccc3c2Br)CC1 | -10.4%
COc1ccc(CSc2nnnn2-c2ccc(O)cc2)cc1F | -17.7%
Cc1cccc(OCC(=O)NC(=S)Nc2ccccc2N2CCOCC2)c1 | 18.8%
Cc1ccc(N=C(NO)c2nonc2N)c(C)c1 | 12.1%
CN1CCN(NC(=O)Nc2cc(Cl)cc(Cl)c2)CC1 | -9.67%
CCCn1cnc2cc(NC(=O)c3ccco3)ccc21 | -3.81%
CCN1C(=O)C(=O)N(CC(=O)N(C)CC(=O)Nc2ccccc2Cl)C1=O | 4.13%
Cc1[nH]c(=S)c(C#N)c(-c2ccccc2)c1C(=O)Nc1ccccc1 | 19.1%
CCN(c1ccccc1)S(=O)(=O)c1ccc(OC)c(NC(=O)Cc2ccc(F)cc2)c1 | -25.1%
CCOC(=O)C1C(=O)CC(C)(O)C(C(=O)OCC)C1c1cccs1 (stereo not shown) | 24%
CCCCC1=CC2=CC(=O)C(C)(OC(=O)c3cnc4ccccc4n3)C(=O)C2=CO1 (stereo not shown) | 27.1%
CC(C)c1ccccc1-n1c(SCC(=O)N2CCc3ccccc3C2)nc2ccccc2c1=O | 6.46%
CCc1[nH]c(=O)[nH]c1C(C)S(=O)(=O)c1ccc(C)cc1 (stereo not shown) | 16.9%
C=CCSc1nc(-c2ccccc2)c2cc(Cl)ccc2n1 | 1.51%

Compound | hERG current change (%, negative = inhibition) at 10uM
O=C(/C=C\c1ccc2c(c1)OCO2)NC1(C(=O)Nc2ccc3c(c2)OCO3)CCCCC1 | 0.49%
Cc1ccc(NC(=O)c2ccc3c(=O)n4c(nc3c2)CCCCC4)nc1 | -60.4%
CC1(CC(=O)N/N=C/c2cc(Br)c(O)cc2O)OCCO1 | 21.4%
CCOc1ccc(S(=O)(=O)c2cn(C)c3cc(OC)c(OC)cc3c2=O)cc1 | 1.86%
CCOC(=O)N1CCN(C(=O)c2cc(-n3cnnc3)ccc2Cl)CC1 | 0.00508%
CCOC(=O)c1c(C)nc2sc3c(=O)n(-c4ccc(C(C)=O)cc4)cnc3c2c1-c1ccc(OC)cc1 | 13.3%
CN(C)/C=N/C(=S)Nc1ccc(Cl)cc1 | 5.24%
CC1=C(Sc2nc3ccccc3[nH]2)C(=O)NC(C)(C)C1 | 1.71%
CCCc1cc(CNC(=O)C2CCC(=O)N(CCc3cccc(F)c3)C2)on1 (stereo not shown) | -49.6%
O=C(Cc1cccs1)N/N=C/C=C\c1ccccc1[N+](=O)[O-] | 13.3%
Cc1ccc(C(=O)OCC(=O)c2cc(C)n(CC3CCCO3)c2C)cc1 (stereo not shown) | -15%
O=C(NC1CCCCC1)C1CC(=O)N(c2ccccc2)C1 (stereo not shown) | 15.6%
O=C(/C=C/c1ccc(S(=O)(=O)N2CCOCC2)cc1)NC(=S)Nc1ccc(Cl)cc1Cl | 8.17%
CC(=O)Nc1ccc(NC(=O)Nc2ccccc2)cc1 | 10.5%
COc1ccc(Cl)cc1-c1nc(SCC(=O)NC(C)C(C)C)n[nH]1 (stereo not shown) | 5.68%
CCOC(=O)CSc1nc2cc(C)ccc2cc1C#N | 1.87%
C#Cc1ccc([C@@H]2C=C(C(=O)N3CCN(Cc4ccccc4)CC3)O[C@H](OCCCCO)C2)cc1 | -56%
COc1ccccc1C(=O)C1CCCN(C(=O)C2CCCC2)C1 (stereo not shown) | -6.06%
COc1ccc(/C=N/Nc2nc(Nc3ccccc3)nc(N3CCCCC3)n2)cc1OC | 12%
C(=N\N1CCN(C(c2ccccc2)c2ccccc2)CC1)/c1ccc2c(c1)OCO2 | 40.8%
Cc1ccccc1NS(=O)(=O)c1ccc2[nH]cc(C(=O)NCCCN3CCOCC3)c(=O)c2c1 | 14.5%
Cc1n[nH]c(=O)nc1N/N=C/c1cccs1 | 9.67%
Cc1cc(/C(N)=N/OC(=O)c2cccc(Cl)c2)no1 | 9.63%
